Experimental findings from the supplement of paper PMC12889115 are described below.

The structures appear in SMILES notation. The list shows a part of the results. Many values rest on one well or one pass, so single values are uncertain.
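Note: polymyxin B level opens the outer membrane while sparing the inner membrane, with novobiocin wells as reference growth inhibitor.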

In the experiment the test system is Salmonella enterica serovar Typhimurium SL1344. As to the kind of experiment: bacterial growth OD600 after 18 h in MHB with 0.5 µg/mL polymyxin B; higher = more bacterial growth (less inhibition). As to conditions: 25 µM; polymyxin B 0.5 µg/mL; system: broth. The method, then: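 Secondary screen of the 553 primary hits at 25 µM. (i) S. Typhimurium SL1344 grown in Mueller-Hinton broth with 0.5 µg/mL polymyxin B, OD600 read after 18 h. (ii) SAFIRE assay: RAW 264.7 macrophages infected with S. Typhimurium sifB::gfp (MOI 30); compound added 2 h post-infection; cells fixed at 18 h; GFP-positive pixel fraction per macrophage imaged by confocal microscopy and expressed as % of DMSO control.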
Turning to `CN(C)C(=O)CC(c1ccccc1)c1cccc(Cl)c1` (stereo not drawn), the “bacterial growth OD600” value amounted to 0.112.

As to `Clc1ccc(C2CCCN(Cc3nc(-c4ccccn4)no3)C2)cc1` (stereo not drawn), the “bacterial growth OD600” value was 0.03.

For `O=C(c1cccc(N2CCCC2=O)c1)N(Cc1ccncc1)Cc1cccc(OCCc2ccc(F)cc2)c1`, the “bacterial growth OD600” value is -0.008.

Take `O=C(Nc1cccc(-c2ccc(F)cc2)c1)C1CCCN(Cc2ccccn2)C1` (stereo not drawn): the “bacterial growth OD600” value amounted to 0.003.

Consider `Cc1cccc(N2CCN(C(=O)CCN3Cc4ccccc4OC(c4ccccc4F)C3)CC2)n1` (stereo not drawn), for which the “bacterial growth OD600” value is -0.024.

As to `O=C(CSc1ccccc1)N1CCc2onc(-c3ccc(Cl)cc3)c2C1`, the “bacterial growth OD600” value was -0.023.

For the compound `CCOC(=O)C1(CC2CC2)CCN(C(=O)C(C)Oc2cccc(Cl)c2)CC1` (stereo not drawn), the “bacterial growth OD600” value came out at 0.086.

On to `COCc1ccc(C(=O)N2CCCC(CCc3ccccc3)C2)o1` (stereo not drawn), for which the “bacterial growth OD600” value was determined as 0.006.

As to `COC1CCN(C(=O)CC(c2ccccc2)c2ccccc2Cl)CC1` (stereo not drawn), the “bacterial growth OD600” value was 0.414.

With `CSCCCNC(=O)c1oc2ccc(C)cc2c1C`, the “bacterial growth OD600” value was 0.3.

Turning to `CCCCN(Cc1ccccc1)C(=O)CCc1nnc(C(OC)c2ccccc2)o1` (stereo not drawn), the “bacterial growth OD600” value turned out to be 0.072.

As to `CN(Cc1ccc2nccnc2c1)C(=O)CC1(c2ccc(-c3ccccc3)cc2)CC(=O)N(C)C1=O` (stereo not drawn), the “bacterial growth OD600” value worked out at 0.003.

On to `O=C(NC1Cc2ccccc2C1)c1coc(COc2cccc(F)c2)n1`, for which the “bacterial growth OD600” value is -0.003.

Turning to `CC(C)/C=C/C(=O)NCCN1Cc2ccccc2OC(c2ccccc2F)C1` (stereo not drawn), the “bacterial growth OD600” value is -0.003.

Regarding `Cc1oc(-c2cccc(C(F)(F)F)c2)nc1CN(Cc1ccccc1)C[C@@H]1CCC(=O)N1`, the “bacterial growth OD600” value was -0.006.

In the case of `Cc1cnccc1CN(C)C(=O)CC(c1ccccc1)c1ccccc1Cl` (stereo not drawn), the “bacterial growth OD600” value came out at 0.004.

`O=C(c1ccc(N2CCCC2=O)cc1)N(Cc1ccncc1)Cc1cccc(OCCc2ccc(F)cc2)c1`: the “bacterial growth OD600” value is -0.009.

For the compound `CCOC(=O)C1CCCCN1C(=O)c1cn(C(c2ccccc2)c2ccccc2)nn1` (stereo not drawn), the “bacterial growth OD600” value was determined as 0.068.

Take `COCC1CCN(c2ccc(-c3nc(COc4ccccc4)no3)cn2)C1` (stereo not drawn): the “bacterial growth OD600” value is 0.592.

Consider `COc1ccc(OC)c(CN2CCOc3ccc(C(O)CCc4ccccc4)cc3C2)c1` (stereo not drawn), for which the “bacterial growth OD600” value is 0.334.

As to `CCOC(=O)C1(Cc2cccc(C(F)(F)F)c2)CCN(C(=O)Cc2nonc2C)CC1`, the “bacterial growth OD600” value is 0.623.

On to `Cc1ccc(C)c(S(=O)(=O)N2CCCC(CO)(Cc3cccc(Cl)c3)C2)c1` (stereo not drawn), for which the “bacterial growth OD600” value was -0.005.

For `COc1ccc(-c2nn(-c3ccccc3F)cc2CN(C)C(C)c2nccs2)cc1` (stereo not drawn), the “bacterial growth OD600” value is 0.017.

With `CCc1ocnc1C(=O)NC1CC(=O)N(CCc2cccc(Cl)c2)C1` (stereo not drawn), the “bacterial growth OD600” value was 0.633.

On to `Cc1ccc(CN(C)C(=O)CC2(c3ccccc3)CC(=O)N(CCCOc3cccnc3)C2=O)cc1` (stereo not drawn), for which the “bacterial growth OD600” value is -0.001.

Consider `CN(Cc1ccccc1Cl)C(=O)c1coc(COc2cccc(F)c2)n1`, for which the “bacterial growth OD600” value stood at 0.002.

Turning to `CSc1ccccc1C(=O)N1CCC(C(Cc2ccccc2F)N(C)C(=O)c2cccs2)CC1` (stereo not drawn), the “bacterial growth OD600” value was determined as 0.003.

Consider `CC(C)c1cc(CN2CCC(n3nccc3NC(=O)c3ccc4c(c3)OCO4)CC2)n[nH]1`, for which the “bacterial growth OD600” value stood at 0.705.
